Reference: paper PMC4336329 (PLoS ONE, 2015)
The campaign covered roughly 310,000 compounds. About 14,000 (4.5%) showed an effect of 50% or more. Effects have a minus sign here. Some of the results follow.

Biological target: human ether-à-go-go-related gene (hERG) potassium channel (human, UniProt Q12809)
Assay: primary screen, population patch clamp on CHO cells stably expressing hERG
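Further: peak tail current of the secondary pulse compared with the same well before compound.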

Sequence of human ether-à-go-go-related gene (hERG) potassium channel (Q12809 whole entry, looked up): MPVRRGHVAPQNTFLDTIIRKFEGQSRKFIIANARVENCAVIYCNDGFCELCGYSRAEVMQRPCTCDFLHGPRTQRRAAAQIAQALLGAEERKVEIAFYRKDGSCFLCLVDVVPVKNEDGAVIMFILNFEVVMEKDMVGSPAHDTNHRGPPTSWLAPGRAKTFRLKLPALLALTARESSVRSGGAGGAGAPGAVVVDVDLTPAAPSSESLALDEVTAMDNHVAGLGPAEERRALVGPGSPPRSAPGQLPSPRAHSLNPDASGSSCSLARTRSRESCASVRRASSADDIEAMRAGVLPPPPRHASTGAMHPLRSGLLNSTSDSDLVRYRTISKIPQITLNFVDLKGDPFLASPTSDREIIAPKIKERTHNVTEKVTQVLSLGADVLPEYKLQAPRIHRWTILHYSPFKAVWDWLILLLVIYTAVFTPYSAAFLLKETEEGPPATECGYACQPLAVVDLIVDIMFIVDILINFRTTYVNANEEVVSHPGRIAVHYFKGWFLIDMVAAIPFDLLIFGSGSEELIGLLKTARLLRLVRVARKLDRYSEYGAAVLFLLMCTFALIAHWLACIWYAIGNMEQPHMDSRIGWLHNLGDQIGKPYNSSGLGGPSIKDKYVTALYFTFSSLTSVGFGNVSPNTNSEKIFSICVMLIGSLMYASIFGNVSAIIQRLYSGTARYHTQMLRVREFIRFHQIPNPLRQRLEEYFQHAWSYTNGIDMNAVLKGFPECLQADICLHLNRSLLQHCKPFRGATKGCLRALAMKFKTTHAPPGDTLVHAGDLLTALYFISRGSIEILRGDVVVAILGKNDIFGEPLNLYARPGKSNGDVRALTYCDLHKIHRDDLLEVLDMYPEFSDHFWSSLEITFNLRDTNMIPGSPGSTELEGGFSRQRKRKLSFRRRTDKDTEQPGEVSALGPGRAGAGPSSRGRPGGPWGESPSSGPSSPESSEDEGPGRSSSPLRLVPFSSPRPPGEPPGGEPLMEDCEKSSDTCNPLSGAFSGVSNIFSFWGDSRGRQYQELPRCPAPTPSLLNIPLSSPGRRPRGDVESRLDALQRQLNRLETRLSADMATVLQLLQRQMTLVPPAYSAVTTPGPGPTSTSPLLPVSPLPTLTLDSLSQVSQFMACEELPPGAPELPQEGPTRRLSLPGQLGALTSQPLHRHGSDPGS

Structure (SMILES)	hERG current change (%, negative = inhibition) at 10uM [%]
O=C(c1ccc2c(c1)OCCO2)N1CCN(c2ncc(C(F)(F)F)cc2Cl)CC1	-41.3
COc1ccc(C(=O)N2CCN(c3ccc(C)c(C)c3)CC2)cc1OC	-6.14
CC1CCN(Cc2c(C(=O)O)nnn2-c2nonc2N)CC1	34.4
CCCCC(=O)Nc1nnc(SCC(=O)Nc2ccc(OC)cc2)s1	21.8
C#CCOCCOCCOCCNc1nc(N2CCN(C(=O)[C@H]([C@@H](C)CC)n3cc([C@@H](N)CO)nn3)CC2)nc(N2CCN(C(=O)[C@H](CCCCN)n3cc([C@@H](N)C(C)CC)nn3)CC2)n1.Cl (stereo partly drawn)	7.3
CC(=O)Nc1ccc(S(=O)(=O)NCC2CCC(C(=O)NCc3ccccc3)CC2)cc1 (stereo not drawn)	-7.76
Cn1c(=O)c2c(nc(OCc3ccc4c(c3)OCO4)n2Cc2ccccc2Cl)n(C)c1=O	2.56
BrC(/C=C\c1ccccc1)=N/Nc1nc(N2CCOCC2)nc(N2CCOCC2)n1	-39
CCN(CC)C(=O)c1ccc(C(=O)c2ccccc2)cc1	-0.232
CN(C)/C=N/c1nc2nccc(-c3cccs3)n2n1	3.53
Cc1ccc(N2CCN(S(=O)(=O)c3ccc(C)cc3)CC2)cc1	14.5
CC(C)(C)OC(=O)NNC(=O)Nc1ccccc1C(F)(F)F	16.5
CCCN(Cc1cc2cc(C)ccc2[nH]c1=O)C(=O)c1cccc([N+](=O)[O-])c1	-7.02
CCOC(=O)C(Cc1ccccc1)NC(=O)Cn1nnc(-c2ccccc2)n1 (stereo not drawn)	-35.5
OCC[C@@H]1C[C@H](O)[C@@H](O)[C@@]2(OCc3ccccc32)O1	15.4
Cc1[nH]c2ccccc2c1C(=O)C(C)OC(=O)c1ccccc1NCCO (stereo not drawn)	15
COc1ccc(/C=N/N(C)C2=NS(=O)(=O)c3ccccc32)cc1	7.81
O=C(O)CSc1ncn[nH]1	-9.23
CN1Cc2c(N)cccc2C(c2ccccc2)C1.O=C(O)/C=C\C(=O)O (stereo not drawn)	-9.57
O=C(c1ccc(Cl)cc1)[C@@H]1[C@@H]2C(=O)N(c3ccc(Cl)cc3)C(=O)[C@@H]2C2c3ccccc3C=NN21 (stereo partly drawn)	14.4
CCc1cccc(NS(=O)(=O)c2ccc(-n3cccn3)cc2)c1	11.5
Cc1ccc(C(=O)COC(=O)c2cnccn2)cc1	5.92

Structure (SMILES)	hERG current change (%, negative = inhibition) at 10uM [%]
Cc1c(Cl)cccc1NC(=O)CSc1nnc(C)n1-c1ccccc1	-34.9
CC1CN(S(=O)(=O)c2ccc(-c3nc4ccccc4s3)cc2)CC(C)O1 (stereo not drawn)	15.9
Cc1ccc(NC(=O)CN2CCCC2c2cccs2)cc1S(=O)(=O)N1CCCCC1 (stereo not drawn)	-9.63
Cc1ccc(S(=O)(=O)Nc2cc(C(C)C)c(O)cc2C)cc1	-12.8
CN(C(=O)COC(=O)CCCc1c[nH]c2ccccc12)c1c(N)n(Cc2ccccc2)c(=O)[nH]c1=O	-5.36
COc1ccc(-c2cc(C(=O)Nc3ccc(C)cc3)no2)cc1	4.81
CC(=O)Nc1nnc(SCC(=O)N2CCN(Cc3ccccc3)CC2)s1	8.94
CCOc1ccc(-c2nc(N)nc(C)c2-c2ccc(OC)c(OC)c2)c(O)c1	10.7
COc1ccc(N(CC(=O)N2CCc3ccccc3C2)S(=O)(=O)c2c(C)nn(C)c2C)cc1	-24
O=C(O)CC1(CC(=O)NCc2ccc(F)cc2)CCCCC1	19.7
CCn1c(=O)cc(OCC(=O)Nc2cc(C)ccn2)c2ccccc21	-0.0401
CC(=O)c1ccc(COC(=O)Cc2ccc([N+](=O)[O-])cc2)cc1	14.4
Br.Fc1cc(Cl)ccc1NC1=NCCCCC1	19.5
Cc1cccc(OCC(=O)Nc2cc(C)c(C)cc2O)c1	4.31
CCC(=O)Nc1cccc(-c2ccc(N3CCN(C)CC3)nn2)c1	1.1
O=c1[nH]c(=O)n(-c2ccccc2F)c(O)c1/C=C1\C=Nc2ccccc21	-9.28
Cc1noc(C)c1C(=O)N1CCN(C(=O)c2sc3cc(Cl)ccc3c2Cl)CC1	-47.4
C/C(=N\NC(=O)C(=O)N/N=C(\C)c1cccc(O)c1)c1cccc(O)c1	18.5
CC(C)Oc1ccccc1C1CC(=O)Nc2cc3c(cc21)OCO3 (stereo not drawn)	7.23
O=C(N/N=C/c1ccncc1)c1cc([N+](=O)[O-])cc([N+](=O)[O-])c1	-11.1
Cc1noc(C)c1S(=O)(=O)NCCc1ccc(S(N)(=O)=O)cc1	8.33
CN(C)c1ccc(C(=O)OCC(=O)NC2CCCCC2)cc1	10.3

Structure (SMILES)	hERG current change (%, negative = inhibition) at 10uM [%]
O=C(c1cnn2c(C(F)(F)F)cc(-c3cccs3)nc12)N1CCOCC1	-5.7
CCOc1cc(N2CCOCC2)c(OCC)cc1NC(=O)C1=NN(c2cccc(C)c2)C(=O)CC1	-3.8
CN(C)C(=O)C(OC(=O)c1ccc2ccccc2n1)c1ccccc1 (stereo not drawn)	8.58
O=C(c1ccccc1[N+](=O)[O-])n1cnc2ccccc21	-14.7
O=S(=O)(c1ccccc1)N1CCN=C1SCc1c(F)cccc1Cl	2.9
O=S(=O)(c1ccc(Sc2nnc3ccccn23)nc1)N1CCOCC1	2.1
Brc1ccc(-c2csc(-c3ccncc3)n2)cc1	15.3
CCN(CC)C(=O)CSc1nc(O)c(Cc2ccccc2)c(=O)n1-c1ccccc1	11.1
C=CCN1C(=O)c2ccc(C(=O)N3CCN(S(=O)(=O)c4cccc([N+](=O)[O-])c4)CC3)cc2C1=O	-30.4
COc1cccc(CNC(=O)CN2C(=O)CCSc3ccc(S(=O)(=O)N4CCCC4)cc32)c1	-15
O=c1oc2ccc3ccccc3c2c2c1SC(C(F)(F)F)C2 (stereo not drawn)	6.15
CCOCCCNC(=O)CSc1ccccc1	14.4
CCN(CC)CCCNC(=O)c1ccccc1C	-10.6
COc1cccc(C(=O)c2ncc(C(F)(F)F)cc2Cl)c1	-2.98
CCOc1ccc(NC(=S)NC23CC4CC(CC(C4)C2)C3)cc1	-0.687
CSc1ccccc1OCc1cc(C(=O)N2CCNC(=O)C2)no1	0.87
O=C(NCc1cccnc1)c1cnc2ccccc2n1	11.9
O=C(Cn1c(CN2CCCCC2)nc2ccccc2c1=O)Nc1ccccc1	-10.2
Cc1ccc2[nH]cc(CCNC(=O)/C=C/c3ccco3)c2c1	-2.52
CC(Cl)C(=O)Nc1ccccc1C#N (stereo not drawn)	25.5
CC(=O)NC(CC(=O)NCc1ccncc1)c1ccccc1 (stereo not drawn)	18.6
COc1ccc(OC)c(NC(=O)CS(=O)(=O)Cc2nc(-c3ccccc3C)oc2C)c1	7.66

Structure (SMILES)	hERG current change (%, negative = inhibition) at 10uM [%]
O=C(Cn1ccc2ccccc2c1=O)NCCC(=O)N1CCN(c2cccc(C(F)(F)F)c2)CC1	-26
COc1ccc(C2SCCN2C(=O)c2ccc([N+](=O)[O-])cc2)cc1 (stereo not drawn)	-70
CN1C(=O)C2(C(C#N)=C(N)Oc3c2oc(CO)cc3=O)c2ccccc21 (stereo not drawn)	13.8
OCC#CC[N+]1(CC#Cc2ccccc2)CCOCC1.[Br-]	-1.3
COc1ccc(/C=C(/NC(=O)c2ccccc2)C(=O)Nc2cccc(C(=O)O)c2)cc1	9.05
Cc1nn(CC(=O)N(C)C)c(C)c1S(=O)(=O)N1CCOCC1	6.99
O=C(C1=COCCO1)N(Cc1nnc(-c2ccc(Cl)cc2)o1)C1CC1	-31.9
COC(=O)c1sc(NC(=O)C2c3ccccc3Oc3ccccc32)c(C(=O)OC)c1C	-2.69
COc1cc(/C=N/NC(=O)c2ccc(Cn3cc([N+](=O)[O-])cn3)o2)cc(Br)c1O	-77.5
CC1CCCCC1NC(=O)COC(=O)C12CC3CC(CC(Cl)(C3)C1)C2 (stereo not drawn)	4.69
CNC(=O)CSCc1c(Cl)cccc1Cl	1.87
CCOC(=O)c1csc(NC(=O)CSc2nnnn2-c2ccc3c(c2)OCCO3)n1	17.8
Nc1nc(CN2CCN(c3ccccc3F)CC2)nc(Nc2ccccc2)n1	-57.1
Cc1c(CNCCCc2ccccc2)c(C(=O)O)c(C)n1Cc1ccccc1	4.03
CCOc1ccccc1CNC(=O)C1CCN(c2nc3ccccc3o2)CC1	-13.4
CC1CCc2c(nc3sc4c(c3c2N)CCCC4)C1 (stereo not drawn)	-11.5
O=C(CSc1nnc(-c2ccccn2)n1Cc1ccco1)c1ccc(-c2ccccc2)cc1	4.82
CCc1ccccc1NC(=O)CSc1nnc([C@@H](NC(=O)OC(C)(C)C)C(C)CC)o1 (stereo partly drawn)	-31.5
O=C1CN(C(=O)c2cccs2)c2ccccc2N1	-4.44
O=C1NC(c2ccc(Br)cc2)Oc2ccccc21 (stereo not drawn)	7.33
CCC(Oc1ccccc1)C(=O)Nc1ccccc1N1CCCCC1 (stereo not drawn)	5.6
